# Several values for one entry are separate records, joined by “and”; a condition that tells them apart may be missing. Equal entries are not always repeated. The shares of active, inactive and inconclusive entries below differ from those in the screen. For some of these results: Where the call is inconclusive, the potency comes from a doubtful curve fit. Activity calls are given as the source filed them. Unless noted, calls come from the whole dose curve; as a rule, active = well fitted curve in the direction sought with a large enough effect; inconclusive = small, poorly fitted or top-dose-only effect, or another doubt; inactive = no such curve, though single readings can be large; an effect the other way counts as inactive or inconclusive.
# Assays:
# [1] = Viability qHTS for spleen associated tyrosine kinase inhibitor (SYKi) naive MV4-11 cells (AID 1963823); note: nearly all actives have a fitted effect of over 40% in size; note: potency is the fitted concentration of half-maximal effect
# Summary of the method: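 SYKi-naive MV4-11 AML cells, 500 per well, were exposed to library compounds for 72 hr at 37 C, 5% CO2. Viability was then read by CellTiter-Glo luminescence after 10 min at room temperature.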
# [2] = Viability qHTS for spleen associated tyrosine kinase inhibitor (SYKi) drug resistant MV4-11 cells (AID 1963824); note: potency is the fitted concentration of half-maximal effect; nearly all actives have a fitted effect of over 35% in size
# Summary of the method: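 SYK inhibitor-resistant MV4-11 AML cells, 500 per well, added to predispensed compounds and incubated 72 hr at 37 C, 5% CO2. Viability measured by CellTiter-Glo luminescence after 10 min at room temperature.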
# [3] = target: Polyprotein P1234 (Chikungunya virus (strain S27-African prototype)) (UniProt Q8JUX6); assay: Secondary cell base assay for inhibitors of NSP2Pro Chikungunya virus (CHIKV) (AID 1964100; calls by dose curve; note: % is set by controls: 0 for no effect and ±100 for the full control effect; nearly all actives have a fitted effect of over 70% in size)
# [4] = target: Polyprotein P1234 (Chikungunya virus (strain S27-African prototype)) (UniProt Q8JUX6); assay: Selectivity profile for inhibitors of NSP2Pro chikungunya virus (CHIKV): Full length NSP2 enzyme counterscreen (CHIKV-NSP2) (AID 1964101; calls by dose curve; note: % is set by controls: 0 for no effect and ±100 for the full control effect; nearly all actives have a fitted effect of over 65% in size); settings: Full-length CHIKV NSP2 protease enzymatic counterscreen; activity change, negative = inhibition: at 50.7 µM (top of the series)
# [5] = target: Polyprotein P1234 (Chikungunya virus (strain S27-African prototype)) (UniProt Q8JUX6); assay: Selectivity profile for inhibitors of NSP2Pro chikungunya virus (CHIKV): Endogenous NS2/3 peptide Counterscreen (AID 1964103; calls by dose curve; note: nearly all actives have a fitted effect of over 55% in size; note: potency is the fitted concentration of half-maximal effect; for activity change, negative = inhibition: % is set by controls: 0 for no effect and ±100 for the full control effect)
# [6] = Quantitative highthroughput screen to assess conditional lethalithy of NOMO1 cells grown in RPMI1640 with untreated serum (RPMI+s) (AID 1963876); note: potency is the fitted concentration of half-maximal effect; nearly all actives have a fitted effect of over 35% in size
# Summary of the method: (§1)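 Each medium arm—HPLM with 10% dialyzed FBS, or RPMI1640 with 5 mM glucose and 10% untreated or dialyzed FBS—was screened against an 11-point, 3-fold compound titration for 48 h at 37 °C, with CellTiter-Glo luminescence as endpoint.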
# [7] = Quantitative highthroughput screen to assess conditional lethalithy of NOMO1 cells grown in RPMI1640 with dialyzed fetal bovine serum (RPMI+ds) (AID 1963877); note: nearly all actives have a fitted effect of over 30% in size; note: potency is the fitted concentration of half-maximal effect;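 for Viability: 100% = DMSO control wells and 0% = empty wells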
# Summary of the method: as §1
# [8] = Quantitative highthroughput screen to assess conditional lethalithy of NOMO1 cells grown in Human Plasma-Like Medium with dialyzed fetal bovine serum (HPLM+ds) (AID 1963878); note: nearly all actives have a fitted effect of over 35% in size; note: potency is the fitted concentration of half-maximal effect;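 for Viability: 100% = DMSO wells and 0% = empty wells on each plate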
# Summary of the method: as §1
# [9] = Quantitative highthroughput screen to assess conditional lethalithy of P12 Ichikawa cells grown in Human Plasma-Like Medium with dialyzed fetal bovine serum (HPLM+ds) (AID 1963879); settings: Potency: viability; note: potency is the fitted concentration of half-maximal effect; nearly all actives have a fitted effect of over 35% in size
# Summary of the method: as §1
# [10] = Quantitative highthroughput screen to assess conditional lethalithy of P12 Ichikawa cells grown in RPMI1640 with dialyzed fetal bovine serum (RPMI+ds) (AID 1963880); settings: Potency: P12-Ichikawa viability
# Summary of the method: as §1
# [11] = Quantitative highthroughput screen to assess conditional lethalithy of SEM cells grown in Human Plasma-Like Medium with dialyzed fetal bovine serum (HPLM+ds) (AID 1963882)
# Summary of the method: as §1
# [12] = Quantitative highthroughput screen to assess conditional lethalithy of SEM cells grown in RPMI1640 with dialyzed fetal bovine serum (RPMI+ds) (AID 1963884); note: nearly all actives have a fitted effect of over 35% in size; note: potency is the fitted concentration of half-maximal effect;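 for Viability: 100% = DMSO control wells and 0% = empty wells without cells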
# Summary of the method: as §1
# [13] = Cellular viability qHTS for adrenocortical cancer (ACC) cell line SW-13 (AID 1963989); settings: SW-13 ACC cells viability, CellTiter-Glo, 48 h; activity (max response): stronger effect = lower value; note: nearly all actives have a fitted effect of over 65% in size; note: potency is the fitted concentration of half-maximal effect;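 for activity (max response): cells grown in serum-free medium with ITS supplement; % is set by controls: 0 for no effect and ±100 for the full control effect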
# Summary of the method: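 SW-13 cells in ITS-supplemented serum-free DMEM were plated overnight, then exposed for 48 h at 37C to compound titrations (up to 46 uM final). Viability was read by CellTiter-Glo luminescence; four-parameter logistic fits gave IC50 and efficacy.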
# [14] = Cellular viability qHTS for adrenocortical cancer (ACC) cell line NCI-H295R (AID 1963990); settings: CellTiter-Glo ATP luminescence, 48 h; activity change, negative = viability loss: at 46.1 µM (top of the series); note: nearly all actives have a fitted effect of over 60% in size; note: potency is the fitted concentration of half-maximal effect;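 for activity change, negative = viability loss: 0% = DMSO only wells and -100% = full killing with cytotoxic reference compound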
# Summary of the method: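 Luminescent ATP read-out (CellTiter-Glo, 20 min RT) after 48 h drug exposure of NCI-H295R cells; a titration up to 46 uM final. Data normalized to doxorubicin (100% inhibition) and DMSO (0%); 4-parameter fit gives IC50, max response.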
# [15] = Quantitative highthroughput screen to assess conditional lethalithy of SEM cells grown in RPMI1640 with unreated serum (RPMI+s) (AID 1963883); note: nearly all actives have a fitted effect of over 35% in size; note: potency is the fitted concentration of half-maximal effect;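 for Viability: 100% = DMSO wells and 0% = empty wells without cells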
# Summary of the method: as §1
# [16] = Quantitative highthroughput screen to assess conditional lethalithy of P12 Ichikawa cells grown in RPMI1640 with untreated serum (RPMI+s) (AID 1963881); settings: Potency: viability
# Summary of the method: as §1
# Tags give direction and shape of the fitted curve.
# Sequence of UniProt Q8JUX6 (Q8JUX6 whole entry, looked up): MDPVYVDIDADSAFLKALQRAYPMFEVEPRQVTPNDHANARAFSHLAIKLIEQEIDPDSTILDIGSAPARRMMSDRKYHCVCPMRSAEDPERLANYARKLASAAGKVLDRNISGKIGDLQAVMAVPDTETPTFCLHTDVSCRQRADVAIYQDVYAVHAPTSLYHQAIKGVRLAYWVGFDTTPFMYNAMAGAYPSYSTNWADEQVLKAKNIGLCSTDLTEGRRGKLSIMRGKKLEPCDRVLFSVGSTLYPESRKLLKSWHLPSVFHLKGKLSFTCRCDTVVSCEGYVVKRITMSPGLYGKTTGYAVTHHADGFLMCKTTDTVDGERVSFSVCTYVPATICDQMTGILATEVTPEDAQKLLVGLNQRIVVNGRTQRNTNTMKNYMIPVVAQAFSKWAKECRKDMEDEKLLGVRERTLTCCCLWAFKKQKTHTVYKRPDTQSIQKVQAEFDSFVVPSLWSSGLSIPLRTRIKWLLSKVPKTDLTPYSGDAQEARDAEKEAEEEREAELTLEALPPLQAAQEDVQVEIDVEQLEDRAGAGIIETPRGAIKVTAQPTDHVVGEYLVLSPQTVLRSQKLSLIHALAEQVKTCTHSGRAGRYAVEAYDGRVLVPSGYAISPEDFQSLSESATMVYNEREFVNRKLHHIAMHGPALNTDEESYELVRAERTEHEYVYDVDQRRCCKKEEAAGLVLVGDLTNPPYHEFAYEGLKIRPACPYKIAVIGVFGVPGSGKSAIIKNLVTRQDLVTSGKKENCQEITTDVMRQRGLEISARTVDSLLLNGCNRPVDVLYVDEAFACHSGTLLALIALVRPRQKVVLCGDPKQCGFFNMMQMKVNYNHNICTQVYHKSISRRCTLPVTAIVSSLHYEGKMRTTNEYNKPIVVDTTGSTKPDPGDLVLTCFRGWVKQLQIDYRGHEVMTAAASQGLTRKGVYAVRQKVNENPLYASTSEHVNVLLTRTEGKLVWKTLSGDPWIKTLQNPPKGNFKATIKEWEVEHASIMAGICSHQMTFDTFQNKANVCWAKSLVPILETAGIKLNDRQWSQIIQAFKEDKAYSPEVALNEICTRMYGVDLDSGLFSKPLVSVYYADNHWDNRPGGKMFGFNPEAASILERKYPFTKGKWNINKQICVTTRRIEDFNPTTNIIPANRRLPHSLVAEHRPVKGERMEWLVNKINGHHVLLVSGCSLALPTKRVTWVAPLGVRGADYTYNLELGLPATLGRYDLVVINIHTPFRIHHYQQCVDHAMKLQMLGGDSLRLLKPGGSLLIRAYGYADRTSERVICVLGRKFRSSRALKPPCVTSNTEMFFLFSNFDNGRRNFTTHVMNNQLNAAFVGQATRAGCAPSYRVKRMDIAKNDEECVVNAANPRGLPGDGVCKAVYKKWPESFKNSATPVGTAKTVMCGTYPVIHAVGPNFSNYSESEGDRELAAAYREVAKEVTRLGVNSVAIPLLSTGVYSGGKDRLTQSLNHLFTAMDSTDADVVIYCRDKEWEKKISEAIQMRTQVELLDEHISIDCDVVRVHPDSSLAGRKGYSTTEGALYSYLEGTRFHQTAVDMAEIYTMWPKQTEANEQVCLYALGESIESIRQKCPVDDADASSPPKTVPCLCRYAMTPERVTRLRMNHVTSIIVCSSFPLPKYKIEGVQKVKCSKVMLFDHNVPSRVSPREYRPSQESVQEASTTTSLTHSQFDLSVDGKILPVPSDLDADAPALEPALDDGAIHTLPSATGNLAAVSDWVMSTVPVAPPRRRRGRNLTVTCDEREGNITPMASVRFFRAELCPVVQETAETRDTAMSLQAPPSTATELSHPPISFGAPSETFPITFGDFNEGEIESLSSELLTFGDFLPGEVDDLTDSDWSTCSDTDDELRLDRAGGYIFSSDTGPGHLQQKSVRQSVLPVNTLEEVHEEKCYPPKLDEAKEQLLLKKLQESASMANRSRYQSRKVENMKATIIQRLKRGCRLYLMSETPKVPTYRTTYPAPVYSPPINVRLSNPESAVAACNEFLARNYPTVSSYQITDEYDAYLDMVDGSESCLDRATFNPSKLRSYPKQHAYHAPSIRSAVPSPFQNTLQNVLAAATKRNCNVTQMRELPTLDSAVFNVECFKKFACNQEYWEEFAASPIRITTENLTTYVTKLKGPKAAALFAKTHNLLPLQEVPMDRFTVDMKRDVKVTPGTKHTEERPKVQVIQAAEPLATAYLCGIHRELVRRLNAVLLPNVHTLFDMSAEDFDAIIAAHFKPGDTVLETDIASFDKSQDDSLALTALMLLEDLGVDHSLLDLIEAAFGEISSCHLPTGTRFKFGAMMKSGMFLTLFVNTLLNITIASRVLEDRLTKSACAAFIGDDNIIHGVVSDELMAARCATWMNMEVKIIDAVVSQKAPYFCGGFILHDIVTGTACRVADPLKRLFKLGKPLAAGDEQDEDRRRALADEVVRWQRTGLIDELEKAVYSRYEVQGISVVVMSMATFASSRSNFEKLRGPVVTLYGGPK
smiles,measurement,setting,value
Cc1cc(C(=O)CN2CCCC2)c(C)n1-c1ccc(F)cc1,Potency,[1],"inconclusive: 23.1 µM [cytotoxic, partial curve] and inconclusive: 16.4 µM [cytotoxic, partial curve]"
same,Potency,[2],"active: 16.4 µM and inconclusive: 18.4 µM [cytotoxic, single point]"
same,Potency,[3],inactive
same,Potency,[4],inactive
same,Potency,[5],inactive
CN(C)CCc1c[nH]c2ccc(CN3CCN(C)S3(=O)=O)cc12,Potency,[1],"inconclusive: 14.6 µM [cytotoxic, partial curve]"
same,Potency,[2],"inconclusive: 25.9 µM [cytotoxic, single point]"
same,Potency,[4],inactive
same,Potency,[5],inactive
O=C(Nc1ccncc1)C(=O)c1cn(Cc2ccc(Cl)cc2)c2ccccc12,Potency,[1],active: 0.132 µM
same,Potency,[6],active: 0.132 µM
same,Potency,[7],"inconclusive: 0.0833 µM [cytotoxic, full curve]"
same,Potency,[8],active: 0.059 µM
same,Potency,[9],"inconclusive: 0.0662 µM [cytotoxic, full curve]"
same,Potency,[10],"inconclusive: 0.105 µM [cytotoxic, full curve]"
same,Potency,[11],"inconclusive: 0.0469 µM [cytotoxic, full curve]"
same,Potency,[12],"inconclusive: 0.0418 µM [cytotoxic, full curve]"
C/C(=C\c1csc(C)n1)[C@@H]1C[C@@H]2O[C@@H]2CCC[C@H](C)[C@H](O)[C@@H](C)C(=O)C(C)(C)[C@@H](O)CC(=O)O1,Potency,[1],active: 0.0052 µM
same,Potency,[13],"inconclusive: 0.0316 µM [cytotoxic, full curve, poor fit]"
CC(C)(O)C(=O)Nc1ccc([N+](=O)[O-])c(C(F)(F)F)c1,Potency,[1],"inconclusive: 18.6 µM [cytotoxic, partial curve]"
same,Potency,[8],"inconclusive: 1.48 µM [cytotoxic, full curve]"
same,activity (max response),[13],inactive: -7.23%
COc1cc(C(=O)N2CC[C@@H](O)[C@@H](N)C2)cc2nc(-c3cc4ccccc4n3CC3CC3)n(C)c12,Potency,[1],"inconclusive: 10.5 µM [cytotoxic, partial curve]"
same,Potency,[8],active: 0.234 µM
same,Potency,[10],"inconclusive: 0.933 µM [cytotoxic, full curve]"
same,Potency,[12],active: 0.831 µM
same,Potency,[14],"inconclusive: 35.5 µM [cytotoxic, single point]"
COC[C@H]1OC(=O)c2coc3c2[C@@]1(C)C1=C(C3=O)[C@@H]2CC[C@H](O)[C@@]2(C)C[C@@H]1OC(C)=O,Potency,[1],active: 11.6 µM
same,Potency,[8],active: 13.2 µM
same,Potency,[11],"inconclusive: 23.5 µM [cytotoxic, single point]"
same,Potency,[12],"inconclusive: 16.6 µM [cytotoxic, partial curve, poor fit]"
O=C1CC[C@@]2(O)[C@H]3Cc4ccc(O)c5c4[C@@]2(CCN3CC2CC2)[C@H]1O5,Potency,[1],inactive
same,Potency,[7],"inconclusive: 16.6 µM [cytotoxic, partial curve]"
same,Potency,[12],inactive
same,activity (max response),[13],inactive: 9.15% and inactive: -5.08%
same,Potency,[14],inactive
COC1=C[C@@H]2[C@@H]3Cc4ccc(OC)c(O)c4[C@]2(CCN3C)CC1=O,Potency,[1],inactive
same,Potency,[12],inactive
same,activity (max response),[13],inactive: -18.4%
O=C(N[C@@H](COc1ccc2[nH]c(=O)[nH]c2c1)c1ccccc1)c1cccn(Cc2ccc(F)c(F)c2)c1=O,Potency,[1],active: 11.6 µM
same,Potency,[6],"inconclusive: 11.8 µM [cytotoxic, partial curve]"
same,Potency,[7],"inconclusive: 9.35 µM [cytotoxic, partial curve]"
same,Potency,[8],"inconclusive: 3.72 µM [cytotoxic, full curve]"
same,Potency,[15],"inconclusive: 4.69 µM [cytotoxic, partial curve]"
same,Potency,[13],"inconclusive: 31.6 µM [cytotoxic, single point]"
same,Potency,[14],"inconclusive: 31.6 µM [cytotoxic, single point]"
Cc1cccc(NC(=O)N[C@H]2CN(C)c3ccccc3C(c3ccccc3)=N2)c1,Potency,[1],active: 25.9 µM
same,Potency,[2],active: 16.4 µM
same,Potency,[5],"inconclusive: 9.19 µM [inhibitor, partial curve]"
O=C(O)C(=O)c1cn(Cc2ccccc2)c2ccc(-c3ccc(OC(F)(F)F)cc3)cc12,Potency,[1],"inconclusive: 18.4 µM [cytotoxic, partial curve]"
same,Potency,[8],inactive
same,Potency,[16],inactive
same,Potency,[11],"inconclusive: 11.8 µM [cytotoxic, single point]"
same,Potency,[15],inactive
same,Potency,[12],"inconclusive: 11.8 µM [cytotoxic, single point]"
same,Potency,[13],"inconclusive: 31.6 µM [cytotoxic, single point]"
same,Potency,[14],"inconclusive: 28.2 µM [cytotoxic, single point]"
C#CC1(O)CCC2C3CCC4=CC(=O)CCC4(C)C3CCC21C (stereo unspecified),Potency,[1],"inconclusive: 10.5 µM [cytotoxic, partial curve, poor fit]"
same,Potency,[7],inactive
same,Potency,[8],inactive
same,Potency,[14],inactive

# — PubChem BioAssay (NCATS)
